# Data published in a collection of fitness landscapes (doi:10.1016/j.celrep.2020.107928).
# The full ranking holds about 81,000 sequences; the median of “one-hybrid fitness for binding NBS DNA” is about -0.1, and the highest 2% start at about 0.36. The list shows a part of the results.
# B1: Caulobacter ParB omega fusion; a variant is named by its letters at X, in order, B8GW30 (parent)
# chain: MESVVVGEPGMSEGRRGLGRGLSALLGEVDAAPAQAPGEQLGGSREAPIEILQRNPDQPRRTFREEDLEDLSNSIREKGVLQPILVRPSPDTAGEYQIVAGERAWRAAQRAGLKTVPIMVRELDDLAVLEIGIIENVQRADLNVLEEALSYKVLMEKFERTQENIAQTIGKSXSHVANXMRLLXLPDEVQSYLVSGELTAXHARAIAAAADPVALAKQIIEGGLSVRETEALARKAPNLSAGKSKGGRPPRVKDTDTQALESDLSSVLGLDVSIDHRGSTGTLTITYATLEQLDDLCNRLTRGI
# Variants of: B1
# Assay: one-hybrid fitness for binding NBS DNA (the Noc-binding site; scaled: cognate 1, non-cognate 0); higher = stronger binding
# Conditions: with NBS DNA site
# Procedure, shortened: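 In E. coli USO, a HIS3 reporter with its site placed 19 bp from the promoter was used to select Caulobacter ParB variants randomised at four specificity codons. Growth lasted 48 hours at 37°C on histidine-free M9 containing 0.1 mM IPTG and 5 mM 3-AT. Fitness was taken as the log change in variant-to-wild-type read ratio from Illumina sequencing of pre- and post-selection plasmids, rescaled between the non-cognate and cognate sites.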
row,Variant,one-hybrid fitness for binding NBS DNA
1,GMTV,≤ 0.2
2,TWCG,≤ 0.2
3,MAMM,≤ 0.2
4,AVLD,≤ 0.2
5,IVDG,≤ 0.2
6,VGTR,≤ 0.2
7,NIPS,≤ 0.2
8,SQRF,≤ 0.2
9,GFNN,≤ 0.2
10,LPTN,≤ 0.2
11,PMFS,≤ 0.2
12,LMVV,≤ 0.2
13,VNRY,≤ 0.2
14,VYQS,≤ 0.2
15,KTKI,≤ 0.2
16,PNQV,≤ 0.2
17,RWWT,≤ 0.2
18,LMFM,≤ 0.2
19,HHTE,≤ 0.2
20,KQDT,≤ 0.2
21,PFLS,≤ 0.2
22,FRWT,≤ 0.2
23,SFKY,≤ 0.2
24,GLWW,≤ 0.2

row,Variant,one-hybrid fitness for binding NBS DNA
1,EIAR,≤ 0.2
2,TADI,≤ 0.2
3,NWHT,≤ 0.2
4,NKSN,≤ 0.2
5,DMNS,≤ 0.2
6,DRFV,≤ 0.2
7,RRHG,0.362
8,RNSR,0.256
9,SSHG,≤ 0.2
10,SMRW,≤ 0.2
11,QVEF,≤ 0.2
12,YMRC,≤ 0.2
13,HAAI,≤ 0.2
14,QVPS,≤ 0.2
15,LPRT,≤ 0.2
16,EAKH,≤ 0.2
17,LPIQ,≤ 0.2
18,LPAK,≤ 0.2
19,VEYR,≤ 0.2
20,DIDR,≤ 0.2
21,YRVS,≤ 0.2
22,KHQV,≤ 0.2
23,CYLY,≤ 0.2
24,ADPV,≤ 0.2

row,Variant,one-hybrid fitness for binding NBS DNA
1,KRRT,0.674
2,HQAD,≤ 0.2
3,YCEM,≤ 0.2
4,GKYG,≤ 0.2
5,INLL,≤ 0.2
6,HYER,≤ 0.2
7,TVMQ,≤ 0.2
8,QKCV,≤ 0.2
9,GFNF,≤ 0.2
10,PNMM,≤ 0.2
11,DEAY,≤ 0.2
12,PYVC,≤ 0.2
13,CSLN,≤ 0.2
14,RFID,≤ 0.2
15,SVYR,≤ 0.2
16,ICIR,≤ 0.2
17,IEES,≤ 0.2
18,QKIR,0.37
19,SEHQ,≤ 0.2
20,YVVG,≤ 0.2
21,PNPW,≤ 0.2
22,QDWW,≤ 0.2
23,PLWA,≤ 0.2
24,FRTQ,≤ 0.2

row,Variant,one-hybrid fitness for binding NBS DNA
1,ACYY,≤ 0.2
2,CHRH,≤ 0.2
3,AKNI,≤ 0.2
4,QRTR,1.01
5,WIFG,≤ 0.2
6,RTCC,≤ 0.2
7,RMWL,≤ 0.2
8,HENT,≤ 0.2
9,QANA,0.257
10,IYPS,≤ 0.2
11,QLLG,≤ 0.2
12,AVAV,≤ 0.2
13,TTVM,≤ 0.2
14,DEAS,≤ 0.2
15,ESYI,≤ 0.2
16,VVGL,≤ 0.2
17,QGKG,≤ 0.2
18,QRKE,0.368
19,SSTQ,≤ 0.2
20,QSNF,≤ 0.2
21,GVGC,≤ 0.2
22,YPEG,≤ 0.2
23,QQVQ,0.395
24,QPDA,≤ 0.2

row,Variant,one-hybrid fitness for binding NBS DNA
1,RIHL,≤ 0.2
2,QYSN,≤ 0.2
3,RMYS,0.361
4,VFRW,≤ 0.2
5,PLMW,≤ 0.2
6,YQDY,≤ 0.2
7,NRFF,≤ 0.2
8,KMPC,≤ 0.2
9,QAWC,≤ 0.2
10,QGPS,≤ 0.2
11,MHTC,≤ 0.2
12,SQWF,≤ 0.2
13,AVYG,≤ 0.2
14,IPCG,≤ 0.2
15,ACSY,≤ 0.2
16,PPYW,≤ 0.2
17,AYLI,≤ 0.2
18,RKNV,≤ 0.2
19,SPHT,≤ 0.2
20,RVWS,0.225
21,KHYE,≤ 0.2
22,YMRT,≤ 0.2
23,KHRA,≤ 0.2
24,DTRW,≤ 0.2

row,Variant,one-hybrid fitness for binding NBS DNA
1,KAKA,≤ 0.2
2,DPHY,≤ 0.2
3,VQRC,≤ 0.2
4,ACYN,≤ 0.2
5,DSLF,≤ 0.2
6,QMEL,≤ 0.2
7,DRPY,≤ 0.2
8,SRAA,≤ 0.2
9,PTRP,≤ 0.2
10,DNYS,≤ 0.2
11,RSCS,0.343
12,GPDV,≤ 0.2
13,ETES,≤ 0.2
14,RMDK,≤ 0.2
15,WRVG,≤ 0.2
16,KARC,≤ 0.2
17,TLQI,≤ 0.2
18,KKTT,0.325
19,QAVA,≤ 0.2
20,QMTN,≤ 0.2
21,VVKL,≤ 0.2
22,TFEV,≤ 0.2
23,VDSI,≤ 0.2
24,TKGL,≤ 0.2

row,Variant,one-hybrid fitness for binding NBS DNA
1,RNQD,≤ 0.2
2,CFEL,≤ 0.2
3,RMLV,≤ 0.2
4,SMIG,≤ 0.2
5,IHNT,≤ 0.2
6,KNTA,≤ 0.2
7,RRYR,0.728
8,AYWT,≤ 0.2
9,PLVL,≤ 0.2
10,NAHR,≤ 0.2
11,LHSK,≤ 0.2
12,IHPM,≤ 0.2
13,GIST,≤ 0.2
14,CIMS,≤ 0.2
15,ELEF,≤ 0.2
16,LKKA,≤ 0.2
17,EAPQ,≤ 0.2
18,HTNP,≤ 0.2
19,QIML,≤ 0.2
20,VEMW,≤ 0.2
21,AYTG,≤ 0.2
22,GSAK,≤ 0.2
23,PQAL,≤ 0.2
24,TDWR,≤ 0.2

row,Variant,one-hybrid fitness for binding NBS DNA
1,VDSV,≤ 0.2
2,LTWW,≤ 0.2
3,SKYT,≤ 0.2
4,MRLS,≤ 0.2
5,CLPD,≤ 0.2
6,RLNE,≤ 0.2
7,GICG,≤ 0.2
8,PNEC,≤ 0.2
9,TFHD,≤ 0.2
10,QDTY,≤ 0.2
11,LHDW,≤ 0.2
12,TYPV,≤ 0.2
13,TMWR,≤ 0.2
14,CLIS,≤ 0.2
15,TRIN,≤ 0.2
16,PTAG,≤ 0.2
17,LWPH,≤ 0.2
18,DKCH,≤ 0.2
19,EASL,≤ 0.2
20,LPGD,≤ 0.2
21,RPVN,≤ 0.2
22,PTFG,≤ 0.2
23,YDSM,≤ 0.2
24,IMLG,≤ 0.2

row,Variant,one-hybrid fitness for binding NBS DNA
1,VRCV,≤ 0.2
2,RCRD,≤ 0.2
3,KETH,≤ 0.2
4,DQTR,≤ 0.2
5,FNWS,≤ 0.2
6,CKNS,≤ 0.2
7,MLEG,≤ 0.2
8,GVTI,≤ 0.2
9,VVPM,≤ 0.2
10,RDTH,≤ 0.2
11,PERT,≤ 0.2
12,LHPK,≤ 0.2
13,RCGA,0.259
14,KDLT,≤ 0.2
15,VCNI,≤ 0.2
16,RYTY,≤ 0.2
17,EARF,≤ 0.2
18,LTQS,≤ 0.2
19,KMIS,≤ 0.2
20,MTSK,≤ 0.2
21,NNCK,≤ 0.2
22,PVEG,≤ 0.2
23,ARDL,≤ 0.2
24,MAPG,≤ 0.2

row,Variant,one-hybrid fitness for binding NBS DNA
1,LQEN,≤ 0.2
2,TGSF,≤ 0.2
3,LLRR,≤ 0.2
4,SVTI,≤ 0.2
5,ILLW,≤ 0.2
6,QNPA,≤ 0.2
7,TYTR,≤ 0.2
8,HSAD,≤ 0.2
9,LHHF,≤ 0.2
10,RVHE,≤ 0.2
11,TYTD,≤ 0.2
12,SHIA,≤ 0.2
13,ERDT,≤ 0.2
14,QFCC,≤ 0.2
15,DLPC,≤ 0.2
16,GHRE,≤ 0.2
17,YDKS,≤ 0.2
18,GTCG,≤ 0.2
19,LCGW,≤ 0.2
20,GMQT,≤ 0.2
21,RKRY,0.366
22,IHDP,≤ 0.2
23,ELVC,≤ 0.2
24,STRI,≤ 0.2

row,Variant,one-hybrid fitness for binding NBS DNA
1,ARLV,≤ 0.2
2,RFWA,≤ 0.2
3,AMLT,≤ 0.2
4,SAQV,≤ 0.2
5,LVGI,≤ 0.2
6,PSCF,≤ 0.2
7,QNQG,≤ 0.2
8,MAQE,≤ 0.2
9,EALI,≤ 0.2
10,ECVT,≤ 0.2
11,RELF,≤ 0.2
12,DRLN,≤ 0.2
13,MLHC,≤ 0.2
14,YPKT,≤ 0.2
15,DVTK,≤ 0.2
16,PCRD,≤ 0.2
17,KWKG,≤ 0.2
18,KQHL,≤ 0.2
19,RNFF,≤ 0.2
20,CYKT,≤ 0.2
21,HAAH,≤ 0.2
22,PVCF,≤ 0.2
23,GHLE,≤ 0.2
24,PNAW,≤ 0.2

row,Variant,one-hybrid fitness for binding NBS DNA
1,MCPT,≤ 0.2
2,NDPL,≤ 0.2
3,NFTF,≤ 0.2
4,IEPH,≤ 0.2
5,CAEW,≤ 0.2
6,TVGF,≤ 0.2
7,ACKY,≤ 0.2
8,GVRY,≤ 0.2
9,HTLE,≤ 0.2
10,DMSR,≤ 0.2
11,SAFG,≤ 0.2
12,SSRD,≤ 0.2
13,AAIG,≤ 0.2
14,EDNP,≤ 0.2
15,AHYV,≤ 0.2
16,THWG,≤ 0.2
17,RRRQ,0.401
18,YHLA,≤ 0.2
19,LADC,≤ 0.2
20,PSNF,≤ 0.2
21,QSWQ,≤ 0.2
22,YHGR,≤ 0.2
23,WKRV,≤ 0.2
24,HCRL,≤ 0.2

row,Variant,one-hybrid fitness for binding NBS DNA
1,RSVW,≤ 0.2
2,DRCY,≤ 0.2
3,QART,0.716
4,ADMT,≤ 0.2
5,RYSQ,≤ 0.2
6,SFPS,≤ 0.2
7,YRRR,0.325
8,LTIQ,≤ 0.2
9,SHVW,≤ 0.2
10,MALI,≤ 0.2
11,TVVF,≤ 0.2
12,IDGT,≤ 0.2
13,PMET,≤ 0.2
14,DPKP,≤ 0.2
15,LCDF,≤ 0.2
16,TLTC,≤ 0.2
17,TTRT,≤ 0.2
18,LTHL,≤ 0.2
